{"source": "PubChem BioAssay AID463173", "about": "(ICCB-Longwood Screening Facility, Harvard Medical School, 2010)", "note": "Hit rate of the full screen: of about 52,000 compounds, about 4,300 (8.3%) were called active. No stated cut-off is given here; in the data, active means survival mostly below about 52% (no sharp cut-off); inactive means mostly above about 56%. The list shows a part of the results."}
{"system": "DeltatarO mutant", "assay": "growth inhibition of S. aureus wild type versus tarO mutant, primary screen, teichoic acid synthesis inhibitors, RN4220, OD600 (AID 463173)", "conditions": "OD600, 18 h, stronger effect = lower value, screened at 18.75 µg/mL (by protocol)"}
{"compound": "COC(=O)c1cccc(Nc2nn3c(=O)c4cc5c(cc4nc3s2)OCO5)c1", "survival": "inactive: 63%"}
{"compound": "COc1ccc(S(=O)(=O)NCC(c2ccc(N(C)C)cc2)N2CCOCC2)cc1", "note": "(stereo unspecified)", "survival": "inactive: 69%"}
{"compound": "COc1ccc(-c2[nH]c3ccccc3c2SCCNC(=O)c2ccc(S(=O)(=O)N(C)C)cc2)cc1", "survival": "inactive: 67%"}
{"compound": "Cc1ccc2[nH]c3c(=O)n(CC(=O)NC(C)C)ncc3c2c1", "survival": "active: 6%"}
{"compound": "CCOC(=O)c1ccc(NC(=O)CCc2c(C)nc3c(-c4ccc(F)cc4)c(C)nn3c2C)cc1", "survival": "inactive: 61%"}
{"compound": "Cc1ccccc1C(=O)Nc1ccc(C(=O)OCc2cc(=O)n3nc(C(C)C)sc3n2)cc1", "survival": "inactive: 91%"}
{"compound": "O=C1CC(c2ccc3c(c2)OCO3)CC2=C1C(c1ccncc1)Nc1ccccc1N2", "note": "(stereo unspecified)", "survival": "inactive: 104%"}
{"compound": "COc1ccc(NC(=O)C2Cc3ccccc3N2C(=O)c2ccccc2)cc1OC", "note": "(stereo unspecified)", "survival": "inactive: 98%"}
{"compound": "Cc1ccc(-c2onc(C)c2C)cc1S(=O)(=O)Nc1ccc(Cl)cn1", "survival": "inactive: 97%"}
{"compound": "COc1ccc(CNC(=O)c2cc3cccc4c3n2CC(C)S4)c(OC)c1", "note": "(stereo unspecified)", "survival": "inactive: 122%"}
{"compound": "O=C(CSc1ncc(CO)n1Cc1ccc(Cl)cc1)NCc1ccc(F)cc1", "survival": "inactive: 55%"}
{"compound": "COc1ccc(C(=O)Oc2cc(-c3ccc4c(c3)OCO4)cc(=O)c3c(C)oc(C)c23)cc1", "survival": "inactive: 113%"}
{"compound": "Cc1ccc(Cl)cc1NC(=O)CSc1nc2c(c(=O)[nH]1)CN(Cc1ccccc1)CC2", "survival": "inactive: 72%"}
{"compound": "COc1ccc(S(=O)(=O)N2CCN(CC(=O)Nc3ccc(Cl)c(C(F)(F)F)c3)CC2)cc1", "survival": "inactive: 71%"}
{"compound": "O=C(CC12CC3CC(CC(C3)C1)C2)N1CCCOC1", "survival": "inactive: 60%"}
{"compound": "O=S(=O)(Nc1cc(Sc2ncn[nH]2)c(O)c2ccccc12)c1cccs1", "survival": "inactive: 91%"}
{"compound": "COc1ccc(-c2ccc(NS(=O)(=O)c3cccc(Cl)c3)cc2)nn1", "survival": "inactive: 89%"}
{"compound": "Cc1ccccc1CNC(=O)c1ccc(Cn2c(SCc3cccc(F)c3)nc3cccnc32)cc1", "survival": "inactive: 89%"}
{"compound": "CCOC(=O)c1nc(Nc2ccc(C(=O)OCC(C)C)cc2)c2ccccc2n1", "survival": "inactive: 61%"}
{"compound": "O=C1CSC(c2ccccc2)N1Nc1nc(N2CCOCC2)nc(N2CCOCC2)n1", "note": "(stereo unspecified)", "survival": "inactive: 101%"}
{"compound": "O=C(CCc1cn(Cc2ccccc2F)c2ccccc12)NCc1ccc(Cl)cc1", "survival": "inactive: 83%"}
{"compound": "CCOc1ccc(NC(=O)C2CCN(S(=O)(=O)c3cc(-c4noc(C)n4)ccc3C)CC2)cc1", "survival": "inactive: 130%"}
{"compound": "Cc1ccsc1/C=N/NC(=O)CO", "survival": "inactive: 105%"}
{"compound": "O=C(O)CCC(=O)NC(c1ccccc1)c1ccccc1", "survival": "inactive: 96%"}
{"compound": "CSc1cccc(-c2nnc(NC(=O)c3ccc4c(c3)OCCO4)o2)c1", "survival": "inactive: 72%"}
{"compound": "CN(Cc1ccccc1)C(=O)COc1ccc(S(=O)(=O)N2CCCC2)cc1", "survival": "inactive: 89%"}
{"compound": "CC(C)CC(=O)NCc1nc2cccnc2n1Cc1ccccc1", "survival": "inactive: 78%"}
{"compound": "Cc1ccc(-c2cc(C(F)(F)F)n3nc(-c4ccc(Cl)cc4)cc3n2)cc1", "survival": "inactive: 51%"}
{"compound": "COc1ccc(CNC(=O)C2CCN(Cc3nc(-c4ccc(OC)c(OC)c4)oc3C)CC2)cc1", "survival": "inactive: 119%"}
{"compound": "COc1cccc(OC)c1C(=O)Nc1nnc(C)s1", "survival": "inactive: 55%"}
{"compound": "Cc1ccc(N(CC(C)C)S(=O)(=O)c2nnc(NC(=O)c3ccco3)s2)cc1", "survival": "active: 44%"}
{"compound": "Cc1ccc2oc(C(=O)N(Cc3cccc(F)c3)C3CCS(=O)(=O)C3)c(C)c2c1", "note": "(stereo unspecified)", "survival": "inactive: 76%"}
{"compound": "COc1ccc(N2CCN(C(=O)c3cc(S(=O)(=O)N4CCCCCC4)cn3C)CC2)cc1", "survival": "inactive: 80%"}
{"compound": "CN1CCN(CCCC(=O)c2ccc(F)cc2)CC1", "survival": "inactive: 101%"}
{"compound": "COc1cccc(NC(=O)N2CCC(n3c(C)nc4cccnc43)CC2)c1", "survival": "inactive: 83%"}
{"compound": "COc1cccc(Cn2c(=O)n(-c3ccc(C)c(F)c3)c(=O)c3sc4ccccc4c32)c1", "survival": "inactive: 72%"}
{"compound": "CN(C)c1ccc(C(C(=O)NC2CCCCC2)N(Cc2ccco2)C(=O)Cc2c[nH]c3ccccc23)cc1", "note": "(stereo unspecified)", "survival": "inactive: 65%"}
{"compound": "OC(CN1CCCCC1)CN(c1ccccc1)c1ccccc1", "note": "(stereo unspecified)", "survival": "inactive: 83%"}
{"compound": "O=S(=O)(NCc1ccco1)c1ccc(Cl)cc1", "survival": "inactive: 77%"}
{"compound": "O=C(NC1CC(=O)N(c2cccc(F)c2)C1)c1ccc(S(=O)(=O)N2CCOCC2)cc1", "note": "(stereo unspecified)", "survival": "inactive: 76%"}
{"compound": "Cc1ccc(NC(=O)Cn2c(=O)oc3ccccc32)cc1Cl", "survival": "inactive: 81%"}
{"compound": "COc1ccccc1CN1COc2ccc3c(C)cc(=O)oc3c2C1", "survival": "inactive: 93%"}
{"compound": "CCOC(=O)c1ccc(NC(=O)CSc2ccc(-c3sc(C)nc3C)nn2)cc1", "survival": "active: 37%"}
{"compound": "COc1cc(/C=C(\\C#N)C(=O)Nc2ccc(S(N)(=O)=O)cc2)ccc1O", "survival": "inactive: 97%"}
{"compound": "COc1ccccc1N1CCN(C(=O)c2sc3nc4n(c(=O)c3c2C)CCC4)CC1", "survival": "inactive: 69%"}
{"compound": "CC(=O)N1C(Nc2ccc(C)cc2)CCN1c1ccccc1", "note": "(stereo unspecified)", "survival": "inactive: 81%"}
{"compound": "CCOc1ccc(C(=O)c2cn(Cc3ccccc3OC)c3cc4c(cc3c2=O)OCCO4)cc1", "survival": "inactive: 83%"}
{"compound": "CCCCN(CC)CCNC(=O)c1cn(CCOC)c(=O)c2c1c1ccccc1n2C", "survival": "inactive: 88%"}
{"compound": "CCC(=O)N1CCc2cc(S(=O)(=O)CCC(=O)Nc3ccc(Cl)c(C(F)(F)F)c3)ccc21", "survival": "inactive: 76%"}
{"compound": "COc1ccc(NC(=O)CSc2oc(-c3cccs3)nc2S(=O)(=O)c2ccc(Br)cc2)c(OC)c1", "survival": "inactive: 57%"}
{"compound": "O=C(CN1CCC(NC(=O)C2CCCCC2)CC1)Nc1cccc(F)c1", "survival": "inactive: 102%"}
{"compound": "CC(=O)NS(=O)(=O)c1ccc(NC(=O)c2ccc(C)c(C)c2)cc1", "survival": "inactive: 98%"}
{"compound": "C(=N\\C(/N=C/c1cccs1)c1cccs1)/c1cccs1", "survival": "inactive: 72%"}
{"compound": "Cc1nc2ccn(Cc3cccs3)c(=O)c2cc1C(=O)NCc1ccccc1", "survival": "inactive: 78%"}
{"compound": "CCc1nonc1NC(=O)c1oc2cc(C)c(Cl)cc2c1C", "survival": "inactive: 75%"}
{"compound": "Cc1cccc(Cn2cc(C(=O)c3ccccc3)c(=O)c3cc4c(cc32)OCO4)c1", "survival": "inactive: 96%"}
{"compound": "Cc1ccc(Nc2sc(C(=O)c3ccccc3)c(N)c2C(=O)NC(C)C)cc1", "survival": "inactive: 75%"}
{"compound": "COc1ccc(C(=O)c2oc3ccccc3c2NC(=O)c2ccc(F)cc2)cc1", "survival": "inactive: 73%"}
{"compound": "O=C(c1cn(CCOc2ccccc2F)c2ccccc12)C1CCCCC1", "survival": "active: -2%"}
{"compound": "CCN(CC)C(=O)C(C(F)(F)F)C(F)(F)F", "survival": "inactive: 63%"}
{"compound": "Fc1ccccc1CSc1nnc2c(n1)[nH]c1ccccc12", "survival": "inactive: 85%"}
{"compound": "COc1ccc(Cn2ccc3nc(C)c(C(=O)N4CCN(c5ccccc5)CC4)cc3c2=O)cc1", "survival": "inactive: 85%"}
{"compound": "CCOC(=O)c1ccc(NC(=O)c2cn(-c3ccccc3)nc2-c2ccc(Br)cc2)cc1", "survival": "inactive: 70%"}
{"compound": "COCCNc1cn[nH]c(=O)c1Cl", "survival": "inactive: 88%"}
{"compound": "CC(=O)C1=C(c2ccc(Cl)c(Cl)c2)N(C(C)=O)n2c(C)nnc2S1", "survival": "inactive: 128%"}
{"compound": "Cc1cccc(C)c1NC(=O)c1oc2c(c1C)-c1nn(Cc3ccccc3)cc1CC2", "survival": "active: 23%"}
{"compound": "CCCSCCCNC(=O)CN1C(=O)COc2ccc(S(=O)(=O)N3CCC(C)CC3)cc21", "survival": "inactive: 90%"}
{"compound": "COc1cc(OC)c(N(C)C(=O)c2nn(C)c3c2CSc2ccccc2-3)cc1Cl", "survival": "inactive: 63%"}
{"compound": "CN1CCC(N(Cc2ccco2)C(=O)c2cc3sccc3n2Cc2ccccc2)CC1", "survival": "inactive: 63%"}
{"compound": "COc1ccc(NC(=O)N2CCN(C(=O)C(Cc3ccc(F)cc3)NC(C)=O)CC2)cc1", "note": "(stereo unspecified)", "survival": "inactive: 92%"}
{"compound": "O=S(=O)(c1ccc2[nH]c3c(c2c1)CCCCC3)N1CCN(c2ccccc2)CC1", "survival": "inactive: 91%"}
{"compound": "COc1cccc(CNC(=O)c2cc(-c3cccc(OC)c3)n[nH]2)c1", "survival": "inactive: 71%"}
{"compound": "O=C(CCn1cnc2ccccc2c1=O)NCc1ccccc1", "survival": "inactive: 109%"}
{"compound": "Cc1ccc(N2CCN(C(=O)CCc3c(C)nc4c(c3C)c(=O)n(C)c(=O)n4C)CC2)c(C)c1", "survival": "inactive: 92%"}
{"compound": "Cc1cc(C)c2oc(-c3cccc(NC(=O)c4ccco4)c3)nc2c1", "survival": "inactive: 87%"}
{"compound": "CCC1CCCCN1CCCNC(=O)CN1C(=O)CSc2ccc(S(=O)(=O)N3CCC(C)CC3)cc21", "note": "(stereo unspecified)", "survival": "inactive: 99%"}
{"compound": "Cc1cc2c(c3oc(=O)c4ccccc4c13)CN(Cc1ccc(F)cc1)CO2", "survival": "inactive: 68%"}
{"compound": "O=C(Nc1cccc(Cl)c1)Nc1ccccc1OCc1cc(=O)n2ccccc2n1", "survival": "inactive: 70%"}
{"compound": "Cc1nc2c(C(=O)N(C)Cc3ccccc3)c[nH]n2c(=O)c1Cc1ccc(Cl)cc1", "survival": "inactive: 88%"}
{"compound": "Cc1ccc(Cl)cc1N1CCN(C(=O)c2ccc3c(c2)N(Cc2ccccc2F)C(=O)c2ccccc2S3(=O)=O)CC1", "survival": "inactive: 79%"}
{"compound": "O=C(NCC(c1ccccc1)c1ccccc1)c1nn(-c2ccccc2Cl)nc1CO", "survival": "inactive: 73%"}
{"compound": "CCOc1ccccc1NC(=O)c1sc(-n2nc(C)c(CCC(C)C)c2C)nc1C", "survival": "inactive: 69%"}
{"compound": "O=C(CN1CCOCC1)N1CCN(c2ccccc2)CC1", "survival": "inactive: 84%"}
{"compound": "CCOc1ccc(C(C)N)cc1", "note": "(stereo unspecified)", "survival": "inactive: 67%"}
{"compound": "CCCCOc1ccc(S(=O)(=O)N2CCN(c3ccccc3OCC)CC2)cc1", "survival": "inactive: 113%"}
{"compound": "COc1ccc(Cl)cc1NC(=O)CN(C)S(=O)(=O)c1ccc(Br)s1", "survival": "inactive: 99%"}
{"compound": "C=CCNc1nc(C(C)C)nc2c1nnn2Cc1ccccc1", "survival": "inactive: 86%"}
{"compound": "CCc1cccc(NC(=O)Cn2c(=O)n(CCc3ccc(OC)c(OC)c3)c(=O)c3ccccc32)c1", "survival": "inactive: 102%"}
{"compound": "Cc1ccc(C(=O)CSc2nc(C)cc(SCC#N)n2)cc1", "survival": "inactive: 80%"}
{"compound": "COc1ccc(CC(=O)NCc2ccc3c(c2)CCN3C(=O)c2ccc(C)cc2)cc1OC", "survival": "inactive: 99%"}
{"compound": "O=C(Cn1ncc2c(=O)oc3ccccc3c21)NCc1ccccc1Cl", "survival": "inactive: 79%"}
